Laboratory results as given in US20180066036A1 (APOGENIX, published 2018).

Assays:
[1] = biological target: CD40 (native receptor on the surface of human cells) (human, UniProt P25942 21-277); assay: cell-based or functional assay
[2] = biological target: T1, human CD40-Fc (Enzo, catalogue number ALX-522-016-C050) (human, UniProt P25942 partial chain); assay: QCM (Attana A100), human CD40-Fc immobilized, analyte at 1, 5 and 10 µg/ml
T1 construct: Bought reagent; also called immobilized CD40-receptor; not shown: Fc part of the bought fusion protein, not described
Procedure: The equilibrium binding constants (KD) of trivalent constructs of CD40L (e.g.: PROTEIN X) and hexavalent constructs of CD40L (e.g. PROTEIN A, PROTEIN B, and PROTEIN C) to CD40 was calculated based on kinetic binding data (kₒₙ and koff) determined with an automated biosensor system (Attana A100). The A100 allows to investigate molecular interactions in real-time based on the Quartz Crystal Microbalance (QCM) technique.
For this purpose human CD40-Fc, purchased from Enzo (catalogue number: ALX-522-016-C050), was immobilized on the surface of a carboxyl-activated QCM-chip. Trimeric and hexameric CD40L-constructs were used as soluble analyte at concentrations of 1, 5, and 10 μg/ml. Binding (kₒₙ) and dissociation (koff) was analyzed.

B1: PROTEIN B (Fc fusion)
chain: QIAAHVISEASSKTTSVLQWAEKGYYTMSNNLVTLENGKQLTVKRQGLYYIYAQVTFCSNREASSQAPFIASLSLKSPGRFERILLRAANTHSSAKPCGQQSIHLGGVFELQPGASVFVNVTDPSQVSHGTGFTSFGLLKLGSGSGNGSQIAAHVISEASSKTTSVLQWAEKGYYTMSNNLVTLENGKQLTVKRQGLYYIYAQVTFCSNREASSQAPFIASLSLKSPGRFERILLRAANTHSSAKPCGQQSIHLGGVFELQPGASVFVNVTDPSQVSHGTGFTSFGLLKLGSGSGNGSQIAAHVISEASSKTTSVLQWAEKGYYTMSNNLVTLENGKQLTVKRQGLYYIYAQVTFCSNREASSQAPFIASLSLKSPGRFERILLRAANTHSSAKPCGQQSIHLGGVFELQPGASVFVNVTDPSQVSHGTGFTSFGLLKLGSGSSSSSSSSG[gap - human IgG1 Fc with N297S (EU numbers)]SSSSSAWSHPQFEK
notes: also called scCD40L-RBD-Fc; AGP1233
CD86 (MFI), monocytes 3 d, 10 ng/mL [1]: 17 MFI | CD86 (MFI), monocytes 3 d, 100 ng/mL [1]: 39 MFI | CD86 (MFI), monocytes 3 d, 1000 ng/mL [1]: 47 MFI | HLA-DR,DP (MFI), monocytes 3 d, 10 ng/mL [1]: 39 MFI | HLA-DR,DP (MFI), monocytes 3 d, 100 ng/mL [1]: 54 MFI | HLA-DR,DP (MFI), monocytes 3 d, 1000 ng/mL [1]: 55 MFI | Percentage of macrophages that are CD86+, 3 d, 10 ng/mL [1]: 30% | Percentage of macrophages that are CD86+, 3 d, 100 ng/mL [1]: 58% | Percentage of macrophages that are CD86+, 3 d, 1000 ng/mL [1]: 64% | Percentage of macrophages that are CD206+ and CD163+ (M2-like), 3 d, 10 ng/mL [1]: 3% | Percentage of macrophages that are CD206+ and CD163+ (M2-like), 3 d, 100 ng/mL [1]: 2% | Percentage of macrophages that are CD206+ and CD163+ (M2-like), 3 d, 1000 ng/mL [1]: 1% | Percentage of macrophages that are HLA-DR,DP+, 3 d, 10 ng/mL [1]: 20% | Percentage of macrophages that are HLA-DR,DP+, 3 d, 100 ng/mL [1]: 35% | Percentage of macrophages that are HLA-DR,DP+, 3 d, 1000 ng/mL [1]: 37% | Kd [2]: 0.152 nM

B2: PROTEIN A (Fc fusion)
chain: QIAAHVISEASSKTTSVLQWAEKGYYTMSNNLVTLENGKQLTVKRQGLYYIYAQVTFCSNREASSQAPFIASLCLKSPGRFERILLRAANTHSSAKPCGQQSIHLGGVFELQPGASVFVNVTDPSQVSHGTGFTSFGLLKLGSGSGNGSQIAAHVISEASSKTTSVLQWAEKGYYTMSNNLVTLENGKQLTVKRQGLYYIYAQVTFCSNREASSQAPFIASLCLKSPGRFERILLRAANTHSSAKPCGQQSIHLGGVFELQPGASVFVNVTDPSQVSHGTGFTSFGLLKLGSGSGNGSQIAAHVISEASSKTTSVLQWAEKGYYTMSNNLVTLENGKQLTVKRQGLYYIYAQVTFCSNREASSQAPFIASLCLKSPGRFERILLRAANTHSSAKPCGQQSIHLGGVFELQPGASVFVNVTDPSQVSHGTGFTSFGLLKLGSGSSSSSSSSG[gap - human IgG1 Fc with N297S (EU numbers)]SSSSSAWSHPQFEK
notes: Strep-tagged form, detected by anti-StrepTagII in the cell assay; also called hexavalent scCD40L-RBD-FC fusion protein PROTEIN A
Kd [2]: 0.167 nM

B3: PROTEIN C (Fc fusion)
chain: QIAAHVISEASSKTTSVLQWAEKGYYTMSNNLVTLENGKQLTVKRQGLYYIYAQVTFCSNREASSQAPFIASLALKSPGRFERILLRAANTHSSAKPCGQQSIHLGGVFELQPGASVFVNVTDPSQVSHGTGFTSFGLLKLGSGSGNGSQIAAHVISEASSKTTSVLQWAEKGYYTMSNNLVTLENGKQLTVKRQGLYYIYAQVTFCSNREASSQAPFIASLALKSPGRFERILLRAANTHSSAKPCGQQSIHLGGVFELQPGASVFVNVTDPSQVSHGTGFTSFGLLKLGSGSGNGSQIAAHVISEASSKTTSVLQWAEKGYYTMSNNLVTLENGKQLTVKRQGLYYIYAQVTFCSNREASSQAPFIASLALKSPGRFERILLRAANTHSSAKPCGQQSIHLGGVFELQPGASVFVNVTDPSQVSHGTGFTSFGLLKLGSGSSSSSSSSG[gap - human IgG1 Fc with N297S (EU numbers)]SSSSSAWSHPQFEK
Kd [2]: 0.176 nM
